Measured values: PubChem BioAssay AID493208 (National Center for Advancing Translational Sciences (NCATS), 2011)
About 340 (0.77%) of roughly 44,000 compounds were called active. Not shown: some 5% with an inconclusive outcome. The call rests on the fitted dose curve; in most records, active means well fitted inhibition curve with a large enough effect; inconclusive means small, poorly fitted or top-dose-only effect; inactive means flat fitted curve, though single readings scatter. The list shows a part of the results.

Experiment: Acumen qHTS Assay for Inhibitors of the mTORC1 Signaling Pathway in MEF (Tsc2-/-, p53-/-) Cells: Sytravon;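 further: plate controls were DMSO for no effect and rapamycin for full effect; nearly all actives have a fitted effect of over 50% in size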
Conditions: phospho-rpS6 immunofluorescence/PI, 24 h; series mostly up to 38.3 µM; activity change, negative = inhibition: at the top concentration
In short: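 Immunofluorescence of rpS6 phosphorylation in Tsc2-/-, p53-/- MEFs after 24 h compound exposure, normalized to propidium iodide signal. Activity is expressed as % positive cells, thresholded with 7.5 nM rapamycin.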

Activity change, negative = inhibition, inactive:
CCC1(C)Cc2c(sc3nc(SC)n(-c4ccc(C)cc4)c(=O)c23)CO1 (stereo not given) 1.31%, O=C(Nc1ccc(-c2nc3cc(Cl)ccc3o2)cc1)c1cc2ccccc2o1 -2.61%, Cc1cc(NC(=O)CCNS(=O)(=O)c2cccc3nsnc23)ccc1Br 0%, Cc1ccc(NC(=O)c2ccccc2Br)c(C(=O)c2ccccc2)c1 0.461%, CC1CCN(c2nc3ccc(C(=O)NCc4ccccc4)cc3s2)CC1 -1.63%, COc1ccc(Cn2c(SCc3ccc(C(=O)NC(C)c4ccccc4)cc3)nc3cccnc32)cc1 (stereo not given) -3.55%, COc1cc(NC(=O)CCCOc2cc(=O)n(C)c3ccccc23)cc(OC)c1OC 2.58%, CCOC(=O)CNC(=O)N1CCN(c2nnc(C)c3c(C)n(-c4ccc(Cl)cc4)nc23)CC1 3.59%, COc1ccc(OC)c(NC(=O)Cn2c(=O)cc(-c3ccccc3)c3c(C)nn(C)c32)c1 -5.02%, Cc1cccc(N2CCN(C(=O)CS(=O)(=O)Cc3nc(-c4ccccc4C)oc3C)CC2C)c1 (stereo not given) -20.7%, Cc1cccc(OCC(=O)Nc2nnc(S(=O)(=O)N3CCc4ccccc43)s2)c1 6.51%, O=C(Nc1ccc(Cl)cc1)C(NS(=O)(=O)c1cccs1)c1ccccc1 (stereo not given) -16.1%, Cc1nc(-c2ccc(C)c(N3CCN(C(=O)Nc4cccc(Cl)c4C)CC3)c2)no1 -11.6%, CCOC(=O)C1CCCN(Cc2cn3c(-c4cccc(Br)c4)nnc3s2)C1 (stereo not given) -26.1%, Cc1ccc(-n2c(Cc3ccccc3)nnc2SCc2nc(-c3cccs3)no2)cc1C 2.19%, CCC(C(=O)Nc1cc(F)ccc1F)n1nc(C)c2c(C)n(-c3ccc(C)cc3)nc2c1=O (stereo not given) -2.82%, CCN(C(=O)c1cn(CC)c(=O)c2cc(OC)c(OC)cc12)c1ccccc1F 1.83%, Cc1cccc(NC(=O)C(=O)NCCc2csc(-c3ccc(F)cc3)n2)c1C -1.18%, CCc1ccccc1NC(=O)c1noc2c1CC(C(C)(C)C)CC2 (stereo not given) -24.9%, COc1ccc(CCC(=O)NC2CC(=O)N(c3ccc(OC)cc3)C2)cc1 (stereo not given) -7.62%, Cc1cc(C)c2c(=O)cc(CSc3n[nH]c(C)n3)[nH]c2c1 -15.6%, Cc1cc(N2CCCCC2)nc2ccc(NC(=O)CCC(=O)N3CCN(c4ccccc4)CC3)cc12 -28%, COc1cc(C(=O)Nc2ccccc2-c2nc(-c3ccc(C)cc3)no2)cc(OC)c1OC 0%, COc1ccc(NC(=O)CN2C(=O)c3cccnc3Sc3ccccc32)cc1OC -0.23%, CC1=C(C(=O)Nc2cc(Cl)ccc2C)C(c2cccs2)n2ncnc2N1 (stereo not given) -3.64%, Cc1cccc(N2CCN(C(=O)c3ccc(Nc4nc5ccccc5n5nnnc45)cc3)CC2)c1C -0.938%, COc1cc(C2C(=O)N(C3CCCCC3)CC(=O)N2C2CCCCC2)ccc1OC(C)C (stereo not given) 4.98%, CCSc1nc(-c2ccccc2F)nc2c1Cc1c(CO)cnc(C)c1O2 -11.9%, CC1CCN(c2nc3ccc(C(=O)N4CCN(c5ccccc5)CC4)cc3s2)CC1 -8.53%, COc1cccc(N2CCN(C(=O)c3nn(C)c4c3CSc3ccc(C)cc3-4)CC2)c1 2.54%, CCC(=O)N1CCc2cc(CNC(=O)c3ccc(F)cc3)ccc21 -2.08%, Cc1ccc(-c2nc3sccn3c2Nc2ccc(C)c(C)c2)cc1 -8.87%, O=C(NCc1ccccc1F)c1ccc(CSc2nc3cccnc3n2Cc2ccccc2)cc1 -8.32%, Cc1nn2c(=O)cc(COC(=O)c3ccccc3NC(=O)COc3ccccc3C)nc2s1 10.8%, COc1ccc(OC)c(NC(=O)[C@H](CSCc2ccccc2)N2Cc3ccccc3C2=O)c1 -6.01%, CCOC(=O)c1cc(OC(=O)c2ccccc2Cl)n(-c2ccccc2)n1 -1.03%, COC(=O)c1cc2sc(Cl)cc2n1CC(=O)Nc1cc(C)cc(C)c1 -1.21%, COc1ccc(OC)c(CNc2nc3ccc(C)cc3n3nnnc23)c1 -6.89%, COC(=O)c1cc2occc2n1CC(=O)Nc1ccc(N(C)C)cc1 -6.57%, Cc1ccc(CNC(=O)Cn2c(=O)n(-c3ccc(C)cc3)c(=O)c3c2c2cc(C)ccc2n3C)cc1 -0.185%, COC(=O)c1c(N)n(-c2ccc(OC)c(OC)c2)c2nc3ccccc3nc12 -12.8%, Cc1ccc(CNC(=O)C(=O)NCC(c2ccco2)S(=O)(=O)c2ccccc2)cc1 (stereo not given) 1.18%, N#Cc1nc(-c2ccc(COc3ccccc3)o2)oc1N1CCCCC1 -14.9%, Cc1ccccc1NC(=O)Cn1c(=O)n(Cc2ccccc2)c(=O)c2c(C)c(C)sc21 5.31%, Cn1c(=O)cc(SCC(=O)N2CCN(c3ccccc3F)CC2)c2ccccc21 -15.8%, CCC(Sc1nnc2c3ccccc3n(CC)c2n1)C(=O)Nc1nnc(C(C)C)s1 (stereo not given) 2.23%, COc1ccc(-c2cc3nc(C4CCN(C(=O)OC(C)(C)C)CC4)c(C(=O)Nc4cc(C)cc(C)c4)cn3n2)cc1 -7.54%, CCCN1CCN(CCCNC(=O)c2ccc3nc(Cc4ccccc4)oc3c2)CC1 0.419%, CCOc1ccc(NC(=O)CC2C(=O)N(c3cccc(C)c3)C(=O)N2Cc2cccs2)cc1 (stereo not given) -0.0811%, CCOc1ccc(CN(CCc2ccc3c(c2)OCO3)Cc2cc(OC)c(OC)cc2OC)cc1 -16.8%, CCCCN1CC(c2nc3ccccc3n2CCCCOc2cccc(C)c2C)CC1=O (stereo not given) 0.108%, COc1cc(NC(=O)CCc2c(C)nn(-c3ccc(N4CCCCC4)nn3)c2C)cc(OC)c1OC 0.0271%, COc1ccc(C)cc1NC(=O)c1cc(S(=O)(=O)N2CCCCC2)c[nH]1 -8.61%, Cc1cc(-n2c(C)nc3ccccc3c2=O)ccc1NC(=O)c1ccccc1[N+](=O)[O-] 0.811%, Cc1cc(C)cc(NC(=O)CCCc2nc(-c3ccco3)no2)c1 -5.44%, CCCc1cc(=O)[nH]c(Nc2cc(C)ccc2OC)n1 -6.18%, CC(Sc1nnc2ccc3ccccc3n12)C(=O)Nc1ccc(Cl)cc1 (stereo not given) 0.205%, COc1cccc(CCNC(=O)c2c(O)nc3c(C)cccn3c2=O)c1 0.298%, Cc1nc2ccn(Cc3ccccc3)c(=O)c2cc1C(=O)N1CCN(c2ccc(F)cc2)CC1 0.512%, CCc1ccc(NC(=O)CC2C(=O)N(c3cccc(OC)c3)C(=O)N2Cc2ccc(F)cc2)cc1 (stereo not given) -3.55%, CCOC(=O)c1cnc2cc(-c3ccc(OCC)cc3)nn2c1-c1ccccc1 -5.53%, COCCc1nn2c(=O)cc(COC(=O)C(c3ccccc3)c3ccccc3)nc2s1 -8.54%, Cc1cc(NC(=O)n2ncc3c(C)cccc32)ccc1Br 3.57%, CCc1ccc(NC(=O)CC2C(=O)N(c3cccc(C)c3)C(=O)N2Cc2ccc(F)cc2)cc1 (stereo not given) -8.58%, COc1ccc(NC(=O)CSc2nccn2Cc2ccc3c(c2)OCO3)cc1 -1.03%, COc1ccc(C)cc1NC(=O)C(=O)NCC(c1cccnc1)N1CCc2ccccc21 (stereo not given) 12.6%, Cc1ccc(-n2c3c(cc(C(=O)Nc4ccccc4C(N)=O)c2=O)C(=O)CC(C)(C)C3)cc1 1.58%, CCOc1ccccc1NC(=O)c1c(NC(=O)COc2ccccc2)sc2c1CCCC2 6.14%, Cc1cc(C)c(NC(=O)CSc2ccc(-c3ccccn3)nn2)c(C)c1 -3.66%, CN(C)CCNC(=O)CN1C(=O)COc2ccc(S(=O)(=O)N3CCCC3)cc21 -0.499%, COc1ccc(C2=Nc3ccccc3NC(c3cccs3)=N2)cc1 1.89%, O=C1CC(c2ccccc2)Sc2ccccc2N1Cc1ccc(F)cc1 (stereo not given) 1.49%, COc1ccccc1CNC(=O)c1c[nH]c2ccc(S(=O)(=O)Nc3cc(C)cc(C)c3)cc2c1=O -1.16%, CCCOc1ccc(CNC(=O)CCCn2ncn3c(cc4sc(CC)cc43)c2=O)cc1 -2.34%, Cc1ccc(-c2cc(C(=O)Nc3ccc(SC(F)F)cc3)no2)cc1F -2.98%, COc1cccc(NC(=O)CCC(=O)N2Cc3ccccc3Oc3ncccc32)c1 -1.83%, CCCOc1ccc(NC(=O)CC2C(=O)N(c3ccccc3)C(=O)N2Cc2ccco2)cc1 (stereo not given) -7.77%, Cc1ccc(CNC(=O)CSc2nc3ccsc3c(=O)n2Cc2ccccc2F)cc1 0.0296%, Cc1cccc(Nc2nnc(-c3ccc(C)c(S(=O)(=O)N4CCCCC4)c3)c3ccccc23)c1 5.84%, Cc1ccc(-n2cc(-c3ccccc3)c3c(N4CCCCC4)ncnc32)cc1 -0.0601%, CC(C)OC(=O)c1cccc(NC(=O)Cn2nnc3sc4c(c3c2=O)CCCC4)c1 -4.36%, Cc1ccc(S(=O)(=O)N2CCN(C(=O)c3cc(-c4ccc(Br)cc4)n[nH]3)CC2)c(C)c1 -4.47%, CCN(CC)c1ccc(NC(=O)c2cccn2-c2nnc(N3CCCCC3)s2)c(C)c1 10.9%, Cc1c(Cl)cccc1-n1ncc(C(=O)N2CCN(c3ncccn3)CC2)c1C1CCN(C(=O)OC(C)(C)C)CC1 5.33%, Cc1ccc(NC(=O)C(Cc2ccccc2)NS(=O)(=O)c2ccc3c(c2)c(=O)n(C)c(=O)n3C)c(C)c1 (stereo not given) -1.4%, CCOc1ccccc1Nc1nc2ccccc2c2nncn12 -0.815%, COc1cccc2c1cc1c(=O)n(CC(=O)N3CCN(c4cccc(C)c4C)CC3)nc(C)n12 0.237%, CC(=O)c1c(C)oc2ccc(N(C(=O)Oc3ccccc3)S(=O)(=O)c3ccc(Cl)cc3)cc12 -6.79%, Cc1ccc(CNC(=O)C2CCN(S(=O)(=O)N3CCCCC3)CC2)cc1 5.78%, Cc1ccc(Cn2nnc3c(=O)[nH]c(C4CCN(C(=O)Cc5ccccc5F)CC4)nc32)cc1 -4.92%, COc1ccc(CCNC(=O)CCc2c(C)nc3c4c(C)cc(C)nc4nn3c2C)cc1OC -0.766%, CCOc1ccc(CNC(=O)c2ccc3oc(=O)n(Cc4ccccc4)c3c2)cc1 0%, CCc1cccc(NS(=O)(=O)c2c(C)[nH]c(=O)[nH]c2=O)c1 1.48%, CC1CCN(S(=O)(=O)c2ccc3c(c2)CCN3C(=O)Nc2ccccc2Br)CC1 -3.59%, COc1ccc2c(c1)cc(CNc1ccc(OC)c(OC)c1)c(=O)n2CC(=O)Nc1ccccc1C -14.8%
